# Source: the RNAGym collection of RNA variant scans (doi:10.1093/nar/gkz1192)
# Read counts are not given, so values of variants with three or more changes are uncertain.
# B1: CPEB3 Ribozyme (parent)
# chain: UAACAGGGGGCCACAGCAGAAGCGUUCACGUCGCAGCCCCUGUCAGAUUCUGGUGAAUCUGCGAAUUCUGCUGUAUAUCUC
# Variants of: B1
# Experiment: self-cleavage, relative activity (ratio to wild type); higher = more cleavage; in vitro, sequencing
# In short: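 Barcoded CPEB3 ribozyme mutants, produced by rounds of error-prone PCR, self-cleaved while being transcribed with T7 RNA polymerase for 5 hours at 37°C and during a subsequent 15 min DNase I step before EDTA was added. Sequencing of template-switched cDNA on Illumina gave cleaved and total reads, and DNA sequencing assigned barcodes to variants. Each variant's relative activity is its cleaved/total read fraction divided by the unmutated ribozyme's fraction, averaged across three batches. A variant needed a minimum of 5 reads.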
row,Variant,self-cleavage
1,UAGCAGGGGGCCACAGCAGAAGCGUUCACGUCGCAGCCCCAGUCAAAUACUGGUGAAUCUGCGAAUUCUGCUGUAUAUCUC,0.26
2,UAGCAGGGGGCCACAGCAGAAGCGUUCACGUCGCAGCCCCUGACAGAUUCUGGUGAAUCUGCGAAUUCUGCAGUAUAUCUC,0.59
3,UAGCAGGGGGCCACAGCAGAAGCGUUCACGUCGCAGCCCCUGUCAGAUCCUGGCGAAUCUGCGAAUCCUGCUGUAUAUCUC,0.42
4,UAGCAGGGGGCCACAGCAGAAGCGUUCACGUCGCAGCCCCAGUCAGAUUCUGGUGAAUCUGCGAAUUCUGCUGUGUAUCUC,0.53
5,UAGCAGGGGGCCACAGCAGAAGCGUUCACGUCGCAGCCCCAGUCAGAUUCUGGUGAGUCUGCGAACUCUGCUGUAUAUCUC,0.19
6,UAGCAGGGGGCCACAGCAGAAGCGUUCACGUCGCAGCCCCCGUCAGAUUCUGGUGAAUCUGCGAAUUCUGCUGAAUAUCUC,1.08
7,UAGCAGGGGGCCACAGCAGAAGCGUUCACGUCGCAGCCCCCGUCAGAUUCUGGUGAAUCUGCGAAUUCUGCUGCAUAUCUC,1.11
8,UAGCAGGGGGCCACAGCAGAAGCGUUCACGUCGCAGCCCCAGUCAGAUUCUGGUGGAUCUGCGAAUUCUGCUGUAUAUCUC,0.51
9,UAGCAGGGGGCCACAGCAGAAGCGUUCACGUCGCAGCCCCAGUCAGAUUCUGGUGUAUCUGCGAAUUCUGCUGUAUAUCUC,0.27
10,UAGCAGGGGGCCACAGCAGAAGCGUUCACGUCGCAGCCCCUGUCAGACUCUGGUGAAUCUGCGAAUUCCGCCGUAUAACUC,0.14
11,UAGCAGGGGGCCACAGCAGAAGCGUUCACGUCGCAGCCCCUGUCAGACUCUGGUGAAUCUGCGAAUUCUGCCGAAUAUCUC,1.13
12,UAGCAGGGGGCCACAGCAGAAGCGUUCACGUCGCAGCCCCCGUCAGAUUCUGGUGAAUCUGCGAGUUCUGCUGUAUAUCUC,0.72
13,UAGCAGGGGGCCACAGCAGAAGCGUUCACGUCGCAGCCCCAGUCAGAUCCUGGUGAAUCGGCGAAUUCUGCUGUAUAUCUC,0.4
14,UAGCAGGGGGCCACAGCAGAAGCGUUCACGUCGCAGCCCCCGUCAGAUUCUGGCGAAUCUGCGAAUUCUGCUGUAUAUCUC,0.97
15,UAGCAGGGGGCCACAGCAGAAGCGUUCACGUCGCAGCCCCCGUCAGAUUCAGGUGAAUCUGCGAAUUCUGCUGUAUAUCUC,1.06
16,UAGCAGGGGGCCACAGCAGAAGCGUUCACGUCGCAGCCCCUGUCAGACCCUGGUGAAUCUGCGAAUUCUGCUGUAUAUCUC,0.46
17,UAGCAGGGGGCCACAGCAGAAGCGUUCACGUCGCAGCCCCAGACAGAUUCUGGUGAAUCUGCGAAUUCUGCUGUAUAUCUC,0.43

row,Variant,self-cleavage
1,UAGCAGGGGGCCACAGCAGAAGCGUUCACGUCGCAGCCCCAGACAGAUUCUGGUGAAUUUGCGAAUUCUGCUGUAUAUCUC,0.15
2,UAGCAGGGGGCCACAGCAGAAGCGUUCACGUCGCAGCCCCCGUCAGAUUCUGGUGAAUCUGCGAAUUCCGCAGUAUAUCUC,0.43
3,UAGCAGGGGGCCACAGCAGAAGCGUUCACGUCGCAGCCCCUGCCAGAUUCUGGCGAAUCUGCGAAUUCUGCUGUAUAUCUC,0.33
4,UAGCAGGGGGCCACAGCAGAAGCGUUCACGUCGCAGCCCCCGUCAGAUUCUGGUGAACCUGCGAAUUCUGCUGUAUAUCUC,0.75
5,UAGCAGGGGGCCACAGCAGAAGCGUUCACGUCGCAGCCCCUGUCAGACUCUGGUGAGUCUGCGAAAUCUGCUGUAUAUCUC,1.12
6,UAGCAGGGGGCCACAGCAGAAGCGUUCACGUCGCAGCCCCUGUCAGAUCCUGGUGAGUCUGCGAAUUCUGCUGUAUAUCUC,0.19
7,UAGCAGGGGGCCACAGCAGAAGCGUUCACGGCGCAGCCCCUGUCAGAUUCUGGUGAGUCUGCGAAUUCUGCUGUAUAUCUC,0.54
8,UAGCAGGGGGCCACAGCAGAAGCGUUCACGUCGCAGCCCCCGUCAGAUUCUGGUGUAUCUGCGAAUUCUGCUGUAUAUCUC,0.69
9,UAGCAGGGGGCCACAGCAGAAGCGUUCACGUCGCAGCCCCAGUCAGAUACUGGUGAACCUGCGAAUUCUGCUGUAUAUCUC,0.35
10,UAGCAGGGGGCCACAGCAGAAGCGUUCACGUCGCAGCCCCCGUCAGACUCAGGUGAAUCUGCGAAUUCUGCUGUAUAUCUC,0.27
11,UAGCAGGGGGCCACAGCAGAAGCGUUCACGUCGCAGCCCCCUUCGGGUUCUGGUGAAUCUGCGAAUUCUGCUGUAUAUCUC,0.2
12,UAGCAGGGGGCCACAGCAGAAGCGUUCACGGCGCAGCCCCUGUCAGAUUCUGGUGAAUCUGCGAGUUCUGCUGUAUAUCUC,0.36
13,UAGCAGGGGGCCACAGCAGAAGCGUUCACGUCGCAGCCCCUGUCAGACUCUUGUGGAUCUGCGAAUUCUGCUGUAUACCCC,0.68
14,UAGCAGGGGGCCACAGCAGAAGCGUUCACGUCGCAGCCCCUGUCAGACUCUGGUGAAACUGCGAAUUCUGCUGUAUAGCUC,0.11
15,UAGCAGGGGGCCACAGCAGAAGCGUUCACGUCGCAGCCCCUGUCAGACUCUGGUGGAUCUGCGAAUUCUGCUGUAUAUCUC,0.45
16,UAGCAGGGGGCCACAGCAGAAGCGUUCACGUCGCAGCCCCUGCCAGAUUCUAUUGGAUCUGCGAAUUCUGCUGUAUAUCUC,0.83
17,UAGCAGGGGGCCACAGCAGAAGCGUUCACGUCGCAGCCCCUGUCAGACUCUGGUGAAUCUGCGAAUUCUGCUGUAUAUCCC,0.75
